# Reference: the supplement of paper PMC8728848
# Some of the results follow.
# B1: CaSRK1 (Capsicum annuum) (protein)
# chain: MALCKIFPFAFILLSCSCYLISGQRFDYPTANLSTTWINSVSAPHSIDYTDGSRIRAILLRGTFGPRYACGFYCNGNCESYLFAIFIVQTNSASQITSPAIGFPQVVWSANRNNPVKINSTLQLTAEGDLVLRDADGTLAWSTNTAGKSVAGLSLTDEGNLALFDSKNATVWQSFDHPTDALVPGQKLVPGMKLTASVSRTNWTAGGLFALSAIDNGLVAFVESNPPQKYFEASVGGSNTSGGSNYVKYLNGSLTLFTHSADTTELILISITPASSAQYMKLESNGHLKVYEWTSRGWREVDDLLTGFRGECNYPTVCGRYGICTMGQCSCPTSSSSRTYFRPIDVRRPSLGCSEVTKLTCQNTKKHSPLEVEDVDYFAFKAGISDTDLNTCKRACLEKCSCKAAFFRSGLNSSRTRGDCYLPTEIFSIMNNEKDRTRYDSVAFIKVQV
# How the values were obtained:
# Experiment in all cases: glycan array binding signal (z-score within array); higher = stronger binding
# Conditions in all cases: glycan notation: IUPAC condensed, linker removed
# [1] = target: Fuc(a1-2)Gal(b1-4)[Fuc(a1-3)]GlcNAc(b1-2)Man(a1-3)[Fuc(a1-2)Gal(b1-4)[Fuc(a1-3)]GlcNAc(b1-2)Man(a1-6)]Man(b1-4)GlcNAc(b1-4)[Fuc(a1-6)]GlcNAc
# In short: (§1)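 Arrays were curated from the Consortium for Functional Glycomics database, 3228 in total, and kept only where the protein sequence was available. Binding is expressed as a within-array Z-score. This score was averaged across arrays of the same protein sequence at different concentrations or buffers and across linkers, and negative values can be read as non-binding.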
# [2] = target: Fuc(a1-2)Gal(b1-4)[Fuc(a1-3)]GlcNAc(b1-2)[Fuc(a1-2)Gal(b1-4)[Fuc(a1-3)]GlcNAc(b1-4)]Man(a1-3)[Fuc(a1-2)Gal(b1-4)[Fuc(a1-3)]GlcNAc(b1-2)Man(a1-6)]Man(b1-4)GlcNAc(b1-4)GlcNAc
# In short: as §1
# [3] = target: Fuc(a1-2)Gal(b1-4)[Fuc(a1-3)]GlcNAc(b1-3)Gal(b1-4)[Fuc(a1-3)]GlcNAc
# In short: as §1
# [4] = target: Fuc(a1-2)Gal(b1-4)[Fuc(a1-3)]GlcNAc(b1-3)Gal(b1-4)[Fuc(a1-3)]GlcNAc(b1-3)Gal(b1-4)[Fuc(a1-3)]GlcNAc
# In short: as §1
# [5] = target: Fuc(a1-2)Gal(b1-4)[Fuc(a1-3)]GlcNAc(b1-3)GalNAc
# In short: as §1
# [6] = target: Fuc(a1-2)Gal(b1-4)[Fuc(a1-3)]GlcNAc(b1-3)[Neu5Ac(a2-6)Gal(b1-4)GlcNAc(b1-6)]Gal(b1-4)Glc
# In short: as §1
# [7] = target: Fuc(a1-2)Gal3S(b1-4)GlcNAc
# In short: as §1
# [8] = target: Fuc(a1-2)Gal6S(b1-3)GlcNAc
# In short: as §1
# [9] = target: Fuc(a1-2)Gal6S(b1-3)GlcNAc6S
# In short: as §1
# Fuc(a1-2)Gal6S(b1-4)Glc = target: Fuc(a1-2)Gal6S(b1-4)Glc
# In short: as §1
# [10] = target: Fuc(a1-2)Gal6S(b1-4)Glc6S
# In short: as §1
# Fuc(a1-2)[Gal(a1-3)]Gal = target: Fuc(a1-2)[Gal(a1-3)]Gal
# In short: as §1
# [11] = target: Fuc(a1-2)[Gal(a1-3)]Gal(b1-3)GalNAc
# In short: as §1
# [12] = target: Fuc(a1-2)[Gal(a1-3)]Gal(b1-3)GalNAc(b1-3)Gal(a1-4)Gal(b1-4)Glc
# In short: as §1
# [13] = target: Fuc(a1-2)[Gal(a1-3)]Gal(b1-3)GlcNAc
# In short: as §1
# [14] = target: Fuc(a1-2)[Gal(a1-3)]Gal(b1-3)GlcNAc(b1-2)Man(a1-3)[Fuc(a1-2)[Gal(a1-3)]Gal(b1-3)GlcNAc(b1-2)Man(a1-6)]Man(b1-4)GlcNAc(b1-4)GlcNAc
# In short: as §1
# [15] = target: Fuc(a1-2)[Gal(a1-3)]Gal(b1-3)GlcNAc(b1-2)Man(a1-3)[Fuc(a1-2)[Gal(a1-3)]Gal(b1-3)GlcNAc(b1-2)Man(a1-6)]Man(b1-4)GlcNAc(b1-4)[Fuc(a1-6)]GlcNAc
# In short: as §1
# [16] = target: Fuc(a1-2)[Gal(a1-3)]Gal(b1-3)GlcNAc(b1-3)GalNAc
# In short: as §1
# [17] = target: Fuc(a1-2)[Gal(a1-3)]Gal(b1-3)GlcNAc(b1-6)GalNAc
# In short: as §1
# [18] = target: Fuc(a1-2)[Gal(a1-3)]Gal(b1-4)Glc
# In short: as §1
# [19] = target: Fuc(a1-2)[Gal(a1-3)]Gal(b1-4)GlcNAc
# In short: as §1
# [20] = target: Fuc(a1-2)[Gal(a1-3)]Gal(b1-4)GlcNAc(b1-2)Man
# In short: as §1
# [21] = target: Fuc(a1-2)[Gal(a1-3)]Gal(b1-4)GlcNAc(b1-2)Man(a1-3)[Fuc(a1-2)[Gal(a1-3)]Gal(b1-4)GlcNAc(b1-2)Man(a1-6)]Man(b1-4)GlcNAc(b1-4)GlcNAc
# In short: as §1
# [22] = target: Fuc(a1-2)[Gal(a1-3)]Gal(b1-4)GlcNAc(b1-2)Man(a1-3)[Fuc(a1-2)[Gal(a1-3)]Gal(b1-4)GlcNAc(b1-2)Man(a1-6)]Man(b1-4)GlcNAc(b1-4)[Fuc(a1-6)]GlcNAc
# In short: as §1
# [23] = target: Fuc(a1-2)[Gal(a1-3)]Gal(b1-4)GlcNAc(b1-3)GalNAc
# In short: as §1
# [24] = target: Fuc(a1-2)[Gal(a1-3)]Gal(b1-4)GlcNAc(b1-6)GalNAc
# In short: as §1
# [25] = target: Fuc(a1-2)[Gal(a1-3)]Gal(b1-4)[Fuc(a1-3)]Glc
# In short: as §1
# [26] = target: Fuc(a1-2)[Gal(a1-3)]Gal(b1-4)[Fuc(a1-3)]GlcNAc
# In short: as §1
# [27] = target: Fuc(a1-2)[Gal(a1-3)]Gal(b1-4)[Fuc(a1-3)]GlcNAc(b1-3)GalNAc
# In short: as §1
# [28] = target: Fuc(a1-2)[Gal(a1-4)]Gal(b1-4)GlcNAc
# In short: as §1
# [29] = target: Fuc(a1-2)[GalNAc(a1-3)]Gal
# In short: as §1
# [30] = target: Fuc(a1-2)[GalNAc(a1-3)]Gal(b1-3)GalNAc(a1-3)[Fuc(a1-2)]Gal(b1-4)GlcNAc
# In short: as §1
# [31] = target: Fuc(a1-2)[GalNAc(a1-3)]Gal(b1-3)GalNAc(b1-3)Gal(a1-4)Gal(b1-4)Glc
# In short: as §1
# [32] = target: Fuc(a1-2)[GalNAc(a1-3)]Gal(b1-3)GlcNAc
# In short: as §1
# [33] = target: Fuc(a1-2)[GalNAc(a1-3)]Gal(b1-3)GlcNAc(b1-2)Man(a1-3)[Fuc(a1-2)[GalNAc(a1-3)]Gal(b1-3)GlcNAc(b1-2)Man(a1-6)]Man(b1-4)GlcNAc(b1-4)GlcNAc
# In short: as §1
# [34] = target: Fuc(a1-2)[GalNAc(a1-3)]Gal(b1-3)GlcNAc(b1-2)Man(a1-3)[Fuc(a1-2)[GalNAc(a1-3)]Gal(b1-3)GlcNAc(b1-2)Man(a1-6)]Man(b1-4)GlcNAc(b1-4)[Fuc(a1-6)]GlcNAc
# In short: as §1
# [35] = target: Fuc(a1-2)[GalNAc(a1-3)]Gal(b1-3)GlcNAc(b1-3)GalNAc
# In short: as §1
# [36] = target: Fuc(a1-2)[GalNAc(a1-3)]Gal(b1-3)GlcNAc(b1-6)GalNAc
# In short: as §1
binder,measurement,setting,value
B1,glycan array binding signal (z-score),[1],-0.395
same,glycan array binding signal (z-score),[2],0.156
same,glycan array binding signal (z-score),[3],-0.51
same,glycan array binding signal (z-score),[4],-0.508
same,glycan array binding signal (z-score),[5],-0.35
same,glycan array binding signal (z-score),[6],-0.374
same,glycan array binding signal (z-score),[7],-0.245
same,glycan array binding signal (z-score),[8],-0.016
same,glycan array binding signal (z-score),[9],2.31
same,glycan array binding signal (z-score),Fuc(a1-2)Gal6S(b1-4)Glc,-0.33
same,glycan array binding signal (z-score),[10],0.695
same,glycan array binding signal (z-score),Fuc(a1-2)[Gal(a1-3)]Gal,-0.38
same,glycan array binding signal (z-score),[11],-0.441
same,glycan array binding signal (z-score),[12],0.004
same,glycan array binding signal (z-score),[13],2.37
same,glycan array binding signal (z-score),[14],-0.546
same,glycan array binding signal (z-score),[15],2.11
same,glycan array binding signal (z-score),[16],-0.199
same,glycan array binding signal (z-score),[17],-0.111
same,glycan array binding signal (z-score),[18],-0.09
same,glycan array binding signal (z-score),[19],-0.284
same,glycan array binding signal (z-score),[20],-0.359
same,glycan array binding signal (z-score),[21],-0.56
same,glycan array binding signal (z-score),[22],-0.368
same,glycan array binding signal (z-score),[23],-0.527
same,glycan array binding signal (z-score),[24],0.559
same,glycan array binding signal (z-score),[25],-0.521
same,glycan array binding signal (z-score),[26],0.067
same,glycan array binding signal (z-score),[27],-0.456
same,glycan array binding signal (z-score),[28],-0.109
same,glycan array binding signal (z-score),[29],-0.526
same,glycan array binding signal (z-score),[30],-0.516
same,glycan array binding signal (z-score),[31],-0.167
same,glycan array binding signal (z-score),[32],-0.186
same,glycan array binding signal (z-score),[33],-0.402
same,glycan array binding signal (z-score),[34],-0.47
same,glycan array binding signal (z-score),[35],0.113
same,glycan array binding signal (z-score),[36],-0.35
